We go through 24 compounds from paper PMC4336329 (PLoS ONE, 2015).

Among all 310,000 compounds or so, about 14,000 (4.5%) showed an effect of 50% or more. Effects have a minus sign here. The list shows a part of the results.
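Further: peak tail current of the secondary pulse compared with the same well before compound.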

Sequence of human ether-à-go-go-related gene (hERG) potassium channel (Q12809 whole entry, looked up): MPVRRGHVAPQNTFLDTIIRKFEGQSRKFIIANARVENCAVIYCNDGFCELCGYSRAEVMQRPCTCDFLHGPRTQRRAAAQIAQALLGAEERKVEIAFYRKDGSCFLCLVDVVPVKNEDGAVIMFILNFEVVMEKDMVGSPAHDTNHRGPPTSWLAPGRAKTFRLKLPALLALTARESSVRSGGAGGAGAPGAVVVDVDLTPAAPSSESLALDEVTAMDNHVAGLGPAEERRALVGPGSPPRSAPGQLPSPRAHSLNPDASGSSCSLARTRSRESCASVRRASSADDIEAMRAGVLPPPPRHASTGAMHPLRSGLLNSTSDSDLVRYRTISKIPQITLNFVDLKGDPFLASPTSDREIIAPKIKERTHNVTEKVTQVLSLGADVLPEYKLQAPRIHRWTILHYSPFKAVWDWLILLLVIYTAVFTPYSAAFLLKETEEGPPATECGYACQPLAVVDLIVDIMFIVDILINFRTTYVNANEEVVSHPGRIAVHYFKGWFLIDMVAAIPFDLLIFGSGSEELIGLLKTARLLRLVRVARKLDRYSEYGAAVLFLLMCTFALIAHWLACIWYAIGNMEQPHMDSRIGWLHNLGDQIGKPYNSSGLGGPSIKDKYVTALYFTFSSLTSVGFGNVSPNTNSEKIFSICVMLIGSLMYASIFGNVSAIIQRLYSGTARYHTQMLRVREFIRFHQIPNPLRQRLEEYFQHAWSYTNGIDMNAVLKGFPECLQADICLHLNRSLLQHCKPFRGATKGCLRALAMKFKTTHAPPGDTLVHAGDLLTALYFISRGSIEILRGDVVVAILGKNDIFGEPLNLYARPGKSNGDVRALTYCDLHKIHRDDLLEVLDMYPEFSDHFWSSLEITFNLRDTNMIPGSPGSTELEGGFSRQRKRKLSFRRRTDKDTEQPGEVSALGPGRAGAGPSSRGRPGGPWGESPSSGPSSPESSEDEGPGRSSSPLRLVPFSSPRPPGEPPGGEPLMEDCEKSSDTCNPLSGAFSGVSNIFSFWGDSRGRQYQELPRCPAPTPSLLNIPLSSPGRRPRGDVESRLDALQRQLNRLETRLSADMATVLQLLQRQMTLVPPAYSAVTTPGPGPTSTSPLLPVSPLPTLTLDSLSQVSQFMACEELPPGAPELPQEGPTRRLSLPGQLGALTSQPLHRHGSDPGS

The test concerns the target human ether-à-go-go-related gene (hERG) potassium channel (human, UniProt Q12809). Kind of test: primary screen, population patch clamp on CHO cells stably expressing hERG.
With `CCOC(=O)C1CCN(C(=O)C(C)c2ccc([N+](=O)[O-])cc2)CC1` (stereo not drawn), the “hERG current change (%, negative = inhibition) at 10uM” value is -21.4%.
On to `Cc1cccc(CN2CCN(c3ncccn3)CC2)c1`, for which the “hERG current change (%, negative = inhibition) at 10uM” value is 4.03%.
`C/C(CC(=O)NC12CC3CC(CC(C3)C1)C2)=N\NC(=O)c1ccc(C)cc1`: the “hERG current change (%, negative = inhibition) at 10uM” value is 20.1%.
For `Cc1ccc(N2CC(C(=O)Nc3ccc(N4CCOCC4)cc3)CC2=O)cc1C` (stereo not drawn), the “hERG current change (%, negative = inhibition) at 10uM” value came to 15.3%.
In the case of `O=C(Cn1nc(-c2ccc(Cl)cc2)c2ccccc2c1=O)NN1CCOCC1` it was 0.409%; in that of `Cc1cc(SCc2ccccc2C)nc(=O)[nH]1`, 11.4%; in that of `COc1cc(S(=O)(=O)NCCCN2CCOCC2)ccc1Cl`, -0.898%.
For the compound `C/C(=C\C(=O)c1ccc(Br)cc1)Nc1ccc(Cl)cc1`, the “hERG current change (%, negative = inhibition) at 10uM” value is -4.9%.
As for `CC(OC(=O)Cn1cc(C(F)(F)F)ccc1=O)C(=O)NC(C)c1ccc(Cl)cc1Cl` (stereo not drawn), the figure is -15.1%; as for `O=C(NC(=S)NNS(=O)(=O)c1ccccc1)c1ccccc1[N+](=O)[O-]`, 19.1%.
In the case of `O=C(NCc1cc(Br)cc(Br)c1OC(=O)c1ccccc1[N+](=O)[O-])c1ccccc1`, the “hERG current change (%, negative = inhibition) at 10uM” value is given as 11.3%.
As for `CCc1nc2ccccc2[nH]c1=O`, the “hERG current change (%, negative = inhibition) at 10uM” value came to 9.28%.
For `CCOC(=O)C(C(=O)NCC1CCCO1)C1CCCCC1` (stereo not drawn), the “hERG current change (%, negative = inhibition) at 10uM” value was 12%.
As for `O=C1CCC(C(=O)OC(C(=O)Nc2ccc([N+](=O)[O-])cc2Br)c2ccccc2)=NN1` (stereo not drawn), the figure is -11.7%.
In the case of `COc1ccc(C(=O)N2CCCCCC2)cc1OC1CCN(C(C)=O)CC1`, the “hERG current change (%, negative = inhibition) at 10uM” value was 6.36%.
Take `NC(=O)C1CCCN(CC(O)COCc2ccc(Cl)cc2)C1.O=C(O)C(=O)O` (stereo not drawn): the “hERG current change (%, negative = inhibition) at 10uM” value is recorded as -8.86%.
As for `CCN(C(=O)COC(=O)CCn1c(C)csc1=O)c1c(N)n(Cc2ccccc2)c(=O)[nH]c1=O`, the figure is 1.79%; as for `CCCCC(=O)Nc1ccc(C(=O)NCC(=O)OC)cc1`, -0.352%; as for `COc1ccc(C(=O)n2nc(-c3ccco3)nc2SC)cc1OC`, 3.41%.
For the compound `CCCC(=O)Nc1cc(-c2nn(C)c(=O)c3ccccc23)ccc1N1CCOCC1`, the “hERG current change (%, negative = inhibition) at 10uM” value is -33.7%.
As for `CCC(C(=O)NC1CCCC1)N(Cc1cccs1)C(=O)Cn1nnc(-c2ccc(OC)c(OC)c2)n1` (stereo not drawn), the “hERG current change (%, negative = inhibition) at 10uM” value is listed as -22.3%.
As for `Cc1ccc(Cl)cc1N1CCN(C(=O)CN2C(=O)c3cccc4cccc2c34)CC1`, the figure is 0.0238%.
As for `CN(Cc1ccccc1)S(=O)(=O)c1ccc(NS(C)(=O)=O)cc1`, the figure is -55.5%; as for `CCCc1cc(=O)oc2cc(OCC(=O)NCCCN3CCOCC3)c(Cl)cc12`, -73%.
